Data reported in the supplement of paper PMC10126150.
Values marked as one replicate rest on one cluster of the flow cell; about a third of the high ones do not repeat.

tested on: ATP; assay: switch fluorescence ratio, 500 uM ATP over buffer (Cy3 cluster intensity, sum of 5 cycles each) (fold (ratio)); higher = stronger signal-on switching upon ATP binding; sequences stand for … in TCGTCGGCAGCGTCAGATGTGTATAAGAGACAGTTTTTTTTTTTTTTTTTTTTTTTTT…TC; settings: aptamer strand: ATP DNA aptamer (quencher-CACCTGGGGGAGTATTGCGGAGGAAGG + anchor), 100 nM annealed; ATP concentration: 500 uM; one replicate
Method in brief: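 Switching-strand clusters labelled with Cy3 on a modified Illumina MiSeq flow-cell were annealed to 100 nM quencher-labelled ATP aptamer, imaged in selection buffer, and re-imaged after 15 min with 500 uM ATP at 22 °C. This was done over five cycles with NaOH stripping and re-annealing in between. The fluorescence ratio is summed target-cycle over summed buffer-cycle Cy3 intensity per cluster, averaged per switch-domain sequence, excluding clusters outside 100-1000 RFU.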
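Note: ATP exposure 15 min at 22 °C before imaging.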

| Sequence | switch fluorescence ratio |
| --- | --- |
| GGGCCAAGT | 0.996 |
| GGGCCAGATG | 1.03 |
| GGGCCCGCTT | 0.979 |
| GGGCCCTGCA | 0.976 |
| GGGCCCTGTA | 0.924 |
| GGGCCGAAAG | 1.01 |
| GGGCCGGGA | 0.994 |
| GGGCCTCGCG | 1.04 |
| GGGCCTGCTG | 0.974 |
| GGGCCTTAGA | 0.961 |
| GGGCGATCGC | 0.955 |
| GGGCGCGAGT | 1.03 |
| GGGCGCGCAC | 1.03 |
| GGGCGCGTGT | 0.942 |
| GGGCGCTACT | 1.04 |
| GGGCGGAAGC | 0.988 |
| GGGCGGATCT | 0.972 |
| GGGCGGCAGT | 0.977 |
| GGGCGGGAG | 0.996 |
| GGGCGTGCAT | 1 |
| GGGCGTTAAC | 0.999 |
| GGGCTAAGAC | 1.13 |
| GGGCTATTAC | 1.53 |
| GGGCTGGGCC | 0.952 |
| GGGCTTAAGA | 1.03 |
| GGGCTTCCAT | 1.01 |

| Sequence | switch fluorescence ratio |
| --- | --- |
| GGGGAACATT | 0.984 |
| GGGGAAGT | 0.904 |
| GGGGAATAAA | 0.959 |
| GGGGACTTG | 1.01 |
| GGGGAGATG | 1.02 |
| GGGGAGATTT | 0.996 |
| GGGGAGGACG | 0.957 |
| GGGGAGGCTA | 1.01 |
| GGGGAGTCAG | 0.983 |
| GGGGATCCTC | 1.04 |
| GGGGATGAGT | 0.97 |
| GGGGATGCCA | 0.955 |
| GGGGCAGTTG | 1.01 |
| GGGGCCATTG | 1.01 |
| GGGGCGCACA | 1 |
| GGGGCTAGGC | 1.03 |
| GGGGCTGGA | 0.918 |
| GGGGCTGTTC | 0.996 |
| GGGGCTGTTT | 0.984 |
| GGGGCTTACC | 0.971 |
| GGGGCTTAGG | 1.01 |
| GGGGGACACA | 0.958 |
| GGGGGCCATT | 1 |
| GGGGGCTGAC | 1 |
| GGGGGTGA | 0.951 |
| GGGGGTTCGA | 1.12 |

| Sequence | switch fluorescence ratio |
| --- | --- |
| GGGGGTTG | 1.01 |
| GGGGTAATCG | 1 |
| GGGGTAGCCA | 0.978 |
| GGGGTCGGAG | 1 |
| GGGGTGCGC | 1 |
| GGGGTGCTTA | 0.982 |
| GGGGTTACGA | 1.02 |
| GGGGTTCCC | 0.986 |
| GGGGTTCGAG | 0.988 |
| GGGGTTGAGA | 0.972 |
| GGGGTTGCTC | 1 |
| GGGGTTTCG | 0.987 |
| GGGTAAGGA | 0.954 |
| GGGTAAGGC | 1.58 |
| GGGTAAGGTC | 0.961 |
| GGGTAATCTG | 0.992 |
| GGGTAATGT | 1.02 |
| GGGTAATTTC | 1.03 |
| GGGTACACGG | 0.999 |
| GGGTACGGGC | 1.05 |
| GGGTAGAGAA | 1 |
| GGGTAGTGCC | 1 |
| GGGTATCCGA | 1 |
| GGGTATCCTA | 0.991 |
| GGGTATTGAC | 1.01 |
| GGGTCAAGCT | 1.06 |

| Sequence | switch fluorescence ratio |
| --- | --- |
| GGGTCACGAC | 0.987 |
| GGGTCCTGCT | 1.04 |
| GGGTCGGCAA | 1.01 |
| GGGTCGTATA | 0.993 |
| GGGTCTGGGA | 0.991 |
| GGGTCTTCGG | 0.999 |
| GGGTGACT | 1.02 |
| GGGTGAGGAA | 1.02 |
| GGGTGATTAC | 0.989 |
| GGGTGCAGCA | 1.24 |
| GGGTGGATG | 0.931 |
| GGGTGGTT | 1.01 |
| GGGTGTCACT | 1.09 |
| GGGTGTGCTA | 1.01 |
| GGGTGTGTCG | 0.985 |
| GGGTGTTTAC | 0.99 |
| GGGTTACAAC | 0.973 |
| GGGTTACAAG | 1.04 |
| GGGTTACCTC | 0.967 |
| GGGTTAGCCC | 0.999 |
| GGGTTATCTA | 0.992 |
| GGGTTCCAGA | 1.03 |
| GGGTTCGCGG | 1.02 |
